Assay results taken from PubChem BioAssay AID463173 (ICCB-Longwood Screening Facility, Harvard Medical School, 2010).
The campaign covered roughly 52,000 compounds. About 1,700 (3.3%) were called active. No stated cut-off is given here; in the data, active means survival mostly below about 52% (no sharp cut-off); inactive means mostly above about 56%. The list shows a part of the results.

The compounds below were run on Wild type (assay: growth inhibition of S. aureus wild type versus tarO mutant, primary screen, teichoic acid synthesis inhibitors, RN4220, OD600 (AID 463173)). Settings: S. aureus RN4220 wild type/DeltatarO growth, OD600, 18 h, active compounds read low, screened at 18.75 µg/mL (by protocol).
`Fc1ccc(-n2ncc3c(N4CCC(Cc5ccccc5)CC4)ncnc32)cc1` was tested, and the survival was inactive: 57%. `CCOc1ccccc1CNC(=O)c1ccc(NC(=O)N2CCSc3ncccc32)cc1` was tested, and the survival was inactive: 63%. For `COc1ccc(CNC(=O)CCNS(=O)(=O)c2cccc3nsnc23)cc1`, the survival was inactive: 57%. In the case of `COc1ccc2c(Sc3ccccc3)c(C(=O)NCCCN3CCCCC3)[nH]c2c1`, the survival is reported as inactive: 73%. `CN(C)c1ncnc(Cl)c1N` was tested, and the survival was inactive: 101%. In the case of `COc1ccc(/C=C/C(=O)Nc2nc3n(n2)C(c2ccccc2)C=C(c2ccc(Cl)cc2)N3)cc1` (stereo not drawn), the survival is reported as inactive: 82%. In the case of `O=C(CSC1=NC(=O)C(c2ccccc2)C(=O)N1)Nc1nncs1` (stereo not drawn), the survival is reported as inactive: 107%. In the case of `COc1ccc(OC)c(NC(=O)c2ccccc2)c1`, the survival is reported as inactive: 105%. With `COc1ccc(OC)c(CNC(=O)Cn2nc(C)c3nn(-c4ccc(Cl)cc4)c(C)c3c2=O)c1` the survival was inactive: 88%. For `COc1ccc2oc(=O)c(-c3cn4c(n3)sc3cc(OC)ccc34)cc2c1`, the survival was inactive: 53%. In the case of `COc1cccc(-c2nnc(-c3ccc(C)o3)o2)c1`, the survival is reported as inactive: 114%. For `CCc1ccccc1NC(=O)Nc1nnc(N(C)Cc2ccccc2)s1`, the survival was inactive: 82%. `CCOc1ccc(C(=O)N2CCC(C)CC2)cc1` was tested, and the survival was inactive: 98%. With `COc1ccc(NC(=O)c2cc(S(=O)(=O)N3CCCCCC3)cn2C)cc1Cl` the survival was inactive: 68%. `Clc1ccc(N2CCN(c3ncnc4c3cnn4-c3ccccc3)CC2)cc1Cl` was tested, and the survival was inactive: 76%. In the case of `Cc1ccc(NCc2nnc(SCC(=O)N(Cc3ccccc3)C(C)(C)C)o2)c(C)c1`, the survival is reported as inactive: 123%. For `Cn1c(=O)c2c(nc(NN=C3CCCCC3)n2C)n(C)c1=O`, the survival was inactive: 117%. In the case of `COC(=O)c1ccc(NC(=O)n2ncc3c(C)cccc32)cc1`, the survival is reported as inactive: 85%. In the case of `CCOC(=O)c1[nH]c2c(c1Cc1ccccc1C)C(=O)CC(c1ccccc1)C2` (stereo not drawn), the survival is reported as inactive: 95%. With `CC1=C(c2ccc(C(C)C)cc2)S(=O)(=O)N=C1N1CCC(C(=O)Nc2ccc(C)cc2)CC1` the survival was inactive: 60%. `CCOc1ccc(-c2nnc(SCC(=O)Nc3ccc(C)cc3C)o2)cc1` was tested, and the survival was inactive: 87%. `COc1ccc(-c2cn3c(n2)sc2cc(C(=O)Nc4ccc(C)c(Cl)c4)ccc23)cc1` was tested, and the survival was inactive: 82%. In the case of `CCc1ccc(NC(=O)c2cnn(-c3c(C)cccc3C)c2C2CCN(C(=O)OC(C)(C)C)CC2)cc1`, the survival is reported as inactive: 72%. In the case of `CC1(C)N=C(SCc2ccc(Cl)cc2)c2ccccc2N1`, the survival is reported as inactive: 143%. For `O=C(NCCc1ccccc1)C(=O)NCC(c1cccs1)S(=O)(=O)c1cccs1` (stereo not drawn), the survival was inactive: 125%. In the case of `Cc1cc(=O)[nH]c2nnc(SCc3ccccc3F)n12`, the survival is reported as inactive: 70%. For `Cc1c(C(=O)N2CCCCCC2)c(S(=O)(=O)Nc2cccc(C#N)c2)c(C)n1C`, the survival was inactive: 77%. For `CCOC(=O)c1c(C)[nH]c(C)c1S(=O)(=O)N1CCC(C(=O)Nc2ccccc2CC)CC1`, the survival was inactive: 57%. For `Cn1c(=O)cc(SCC(=O)NCc2ccc(F)cc2)c2cc(Cl)ccc21`, the survival was inactive: 102%. `Cc1ccc(S(=O)(=O)N2CCN(Cc3cc(=O)n4nc(-c5ccccc5Cl)sc4n3)CC2)cc1` was tested, and the survival was inactive: 64%. `COc1ccc(NC(=O)N2CCCn3nc(C)cc32)cc1OC` was tested, and the survival was inactive: 78%. In the case of `Cn1c(=O)c(=O)n(C)c2cc(NS(=O)(=O)c3ccc(Br)cc3)c(Cl)cc21`, the survival is reported as inactive: 65%. In the case of `CCc1ccc(-n2nc(CO)c(C(=O)NCc3ccccc3Cl)n2)cc1`, the survival is reported as inactive: 84%. With `N#Cc1c(Nc2ccccc2)sc(C(=O)c2cccs2)c1N` the survival was inactive: 118%. `CCCCNC(=O)CSc1nc2cc3c(cc2c(=O)n1Cc1ccc(C(=O)NCCc2ccc(OC)c(OC)c2)cc1)OCO3` was tested, and the survival was inactive: 87%. With `CCn1c(C(=O)NCc2ccccc2Cl)cc2sc(Cl)cc21` the survival was inactive: 55%. With `COc1cc(S(=O)(=O)N(CC(=O)Nc2c(C)cccc2C)CC2CCCO2)ccc1-n1cnnn1` (stereo not drawn) the survival was inactive: 104%. For `COc1ccc(Cc2nc3ccccc3n2Cc2ccccc2C)cc1`, the survival was active: 1%. In the case of `Cc1cc2[nH]c(=O)c(=O)[nH]c2cc1S(=O)(=O)N1CCN(c2ccccc2)CC1`, the survival is reported as inactive: 75%. With `O=C(NCc1cccc(Cl)c1)c1ccc(NC(=O)N2CCSc3ccccc32)cc1` the survival was inactive: 73%. With `COc1ccc(-c2cc3ccc(O)c(CN4CCCC(C)C4)c3oc2=O)cc1OC` (stereo not drawn) the survival was inactive: 83%. For `CC(Oc1ccccc1)C(=O)Nc1ccc(C(=O)OCc2cc(=O)n3nc(C4CC4)sc3n2)cc1` (stereo not drawn), the survival was inactive: 57%. With `O=C(CCC(=O)N1Cc2ccccc2Oc2ncccc21)NCc1cccc(Cl)c1` the survival was inactive: 59%. In the case of `Cc1nn(C)c(C)c1S(=O)(=O)N(CC(=O)Nc1ccc(F)cc1F)c1ccc(C(C)C)cc1`, the survival is reported as inactive: 115%. In the case of `COc1ccc(NC(=O)Cn2c(=O)n(-c3ccc(C)cc3)c(=O)c3c2c2cc(C)ccc2n3C)cc1`, the survival is reported as inactive: 140%. In the case of `Cc1ccc(Cc2c(C)nc3nc(SCC(=O)NCCC(C)C)nn3c2C)cc1`, the survival is reported as inactive: 64%. For `Cc1ccc(CN2C(=O)SC(Nc3ccc(Cl)cc3)C2=O)cc1` (stereo not drawn), the survival was inactive: 62%. With `CC1CCN(c2nc3ccc(C(=O)NC(C)C)cc3s2)CC1` the survival was inactive: 75%. `O=C(Nc1onc2c1CCCC2)c1ccccc1` was tested, and the survival was inactive: 108%. With `COc1cccc(CNC(=O)C(=O)NCC(c2ccco2)S(=O)(=O)c2ccccc2)c1` (stereo not drawn) the survival was inactive: 72%. In the case of `c1ccc(OCCCn2nnc(-c3ccncc3)n2)cc1`, the survival is reported as inactive: 111%. `O=C(CN1C(=O)CCn2nc(-c3ccccc3)cc21)NCc1ccccc1` was tested, and the survival was inactive: 124%. For `COc1ccccc1CNC(=O)c1cnc2sc(N3CCCCC3)nn2c1=O`, the survival was inactive: 65%. With `COc1cccc(C2C(C(=O)Nc3ccccc3OC)=C(C)Nc3nc(-c4ccco4)nn32)c1` (stereo not drawn) the survival was inactive: 82%. In the case of `CCCOc1cccc(C2c3c(oc4ccc(F)cc4c3=O)C(=O)N2CCc2ccc(OC)cc2)c1` (stereo not drawn), the survival is reported as inactive: 74%. With `COc1ccc(-n2nc(C(=O)NCCc3ccc(OC)c(OC)c3)c3c4ccccc4n(C)c3c2=O)cc1` the survival was inactive: 78%. In the case of `CCC(Sc1nnc2c3ccccc3n(CC)c2n1)C(=O)Nc1ccc(NC(C)=O)cc1` (stereo not drawn), the survival is reported as inactive: 106%. With `Cc1ccccc1-c1nc(CS(=O)(=O)CC(=O)NCCCc2ccccc2)c(C)o1` the survival was inactive: 138%. With `COc1ccc(C(=O)NCC(c2ccc(Cl)cc2)N2CCCCC2)cc1` (stereo not drawn) the survival was inactive: 84%. With `CCC(C(=O)Nc1cc(C(F)(F)F)ccc1Cl)n1nc(C)c2sc3ccccc3c2c1=O` (stereo not drawn) the survival was inactive: 90%. For `COc1ccccc1CNC(=O)Cn1nc(C)n2cccc2c1=O`, the survival was inactive: 87%. For `O=C(Cn1nc(Cc2cccnc2)c2ccccc2c1=O)Nc1ccc(F)c(Cl)c1`, the survival was inactive: 67%. For `COc1ccc(-c2noc(CSc3nc4ccc(C)cc4[nH]3)n2)cc1`, the survival was inactive: 47%. For `COc1cccc(CNC(=O)c2sc3ncccc3c2-n2c(C)ccc2C)c1OC`, the survival was inactive: 94%. `O=C(Cn1cnc2onc(-c3ccc(F)cc3)c2c1=O)N1CCN(c2ccc(F)cc2)CC1` was tested, and the survival was inactive: 59%. With `COc1ccccc1CNC(=O)CCn1c(=O)c2ccccc2n(CC(=O)Nc2cc(Cl)ccc2C)c1=O` the survival was inactive: 104%. With `CCOC(=O)c1ccc(N2C(=O)c3[nH]nc(-c4ccc(OC)cc4)c3C2c2cccc(O)c2)cc1` (stereo not drawn) the survival was inactive: 85%. `CCc1cccc(NC(=O)CSc2ncc3c(n2)-c2cc(Cl)ccc2N(C)S3(=O)=O)c1` was tested, and the survival was inactive: 65%. In the case of `O=c1cc(COc2ccccc2Cl)nc2scc(-c3ccccc3)n12`, the survival is reported as inactive: 83%. With `COc1ccccc1NC(=O)Cn1nnc(C(=O)NCc2cccs2)c1N` the survival was inactive: 81%. In the case of `Cc1ccc(Cl)cc1N1CCN(C(=O)Cn2nc(C)c3sc4ccccc4c3c2=O)CC1`, the survival is reported as inactive: 60%. With `Cc1ccc(S(=O)(=O)N2CCN(S(=O)(=O)c3ccc(C)cc3)CC2)cc1` the survival was inactive: 108%. With `Cc1ccc(C2NC(=O)c3n[nH]c(-c4cccs4)c32)cc1` (stereo not drawn) the survival was inactive: 78%. With `COc1ccc(NC(=O)CCS(=O)(=O)c2nc(-c3ccc4c(c3)OCO4)cc(C(F)(F)F)n2)cc1OC` the survival was inactive: 76%. `CCC(C)NC(=O)CCSc1nc(-c2ccc3c(c2)OCO3)cc(C(F)(F)F)n1` (stereo not drawn) was tested, and the survival was inactive: 132%. `O=C(Nc1cccc(C(=O)OCc2cc(=O)n3c4c(sc3n2)CCCC4)c1)c1cccc(F)c1` was tested, and the survival was inactive: 73%. `Cc1ccc(NC(=O)CSc2nc(=O)n(Cc3ccccn3)c3c2CCC3)cc1F` was tested, and the survival was inactive: 74%. With `COC(=O)c1c(NC(=O)Cc2coc3cc(C)cc(C)c23)sc2c1CCC2` the survival was inactive: 83%. With `COc1cc(C(=O)NCc2ccc3c(c2)CCN3C(=O)c2ccc(Cl)cc2)cc(OC)c1OC` the survival was inactive: 89%. With `O=S(=O)(NCc1ccccc1)c1ccc(S(=O)(=O)N2CCCCCC2)cc1` the survival was inactive: 109%. `COc1ccc(C2CC(=O)c3cc(-c4nc(-c5cccc([N+](=O)[O-])c5)cs4)c(=O)n(-c4cccc(C)c4)c3C2)cc1` (stereo not drawn) was tested, and the survival was inactive: 80%. In the case of `Cc1ccc(NC(=O)CSc2nc3ccc(NC(=O)c4ccco4)cc3s2)cc1`, the survival is reported as inactive: 95%. `CCN(CC)c1ccc(-c2nc(NC(C)=O)c3c(=O)oc4ccccc4c3n2)cc1` was tested, and the survival was inactive: 110%. For `COCCNC(=O)c1c(NC(=O)c2cc(=O)c3cc(C)cc(C)c3o2)sc2c1CCCC2`, the survival was inactive: 85%. With `CCc1ccc(NC(=O)c2cnc3c(-c4ccccc4)c(C)nn3c2C)cc1` the survival was inactive: 83%. `C=CCc1c(C)nc2ccccc2c1Cl` was tested, and the survival was inactive: 101%. In the case of `CC(=O)c1ccc(NC(=O)c2ccc(-c3nc(CSc4ccc(C)cc4)c(C)o3)cc2)cc1`, the survival is reported as inactive: 71%. For `O=C(Nc1ccccc1Cl)N1CCC2(CC1)Oc1ccccc1C(=O)N2Cc1ccc(F)cc1`, the survival was inactive: 77%.
